# ± gives the standard deviation of the averaged measurements. This is one part of the list.
# System: PfAP2-I AP2 domain 3 (GST-tagged)
# Assay: gcPBM binding intensity (ln(normalized median fluorescence intensity)); higher = stronger DNA binding
# In short: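 Binding intensity values are the highest Masliner-normalised natural-log median intensity among replicate spots of either probe orientation. The binding step lasted 1 h in 1× PBS with 1% milk, 0.2 mg/ml BSA, 0.5% salmon testes DNA and 0.03% Triton X-100, using GST-tagged P. falciparum DNA-binding domains expressed in E. coli on an Agilent 4 × 180k array of primer-extended double-stranded 36-bp intergenic genomic probes plus negative controls. Alexa488 anti-GST antibody and a 488 nm scan detected bound protein.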
row,Sequence,gcPBM binding intensity (ln)
1,AATAATATATATATAATACACACTATTATAATCACA [CACACA_site1310],7.76 ± 0.44
2,TTTTTTTTTTTTTTTTTTTTCATTCAATTATATTTA [CACACA_negctrl_site712],8.18 ± 0.74
3,TTATCACATAAACGATGTACGTACTAGGTTTTTTTT [XGTACX_site2147],7.67 ± 0.69
4,TGAATAATATACATACGTACATACATATATATAATA [XGTACX_site1302],7.86 ± 0.26
5,ATAAAAAGGAAACACACACACACACCCATATATATA [CACACA_site904],8.52 ± 0.55
6,AACTAATATAATAATACATGCACATAAAAATATATA [TGCATGCA_site606],8.19 ± 0.39
7,AAAGGAATATAATGATGTACACAAATATATATACAT [XGTACX_site5347],7.99 ± 0.37
8,TATTTTTTTATTTGTGCATGTCATATTTAAACATAA [TGCATGCA_site1006],8.5 ± 0.68
9,CACGCATACGGACACACACACACACCGATATATATA [CACACA_site4521],8.29 ± 0.63
10,ATATAAAAATTAAAATGTACATATCTTATTATAATA [XGTACX_site983],7.7 ± 0.5
11,CAACATAAAAATTAAGCATGCAATAGACTTGTGTTG [TGCATGCA_site417],7.53 ± 0.96
12,TAATAAAATAATATCACACATATTTATATATATTAT [CACACA_site5814],7.42 ± 0.5
13,GTTTAAAAAAATTATCAACTTTAAAAAGGTAACATT [XGTACX_negctrl_site203],7.74 ± 0.42
14,GTAGTAAATAGGAGGATGCATATGGCACACATTATA [TGCATGCA_negctrl_site59],9.8 ± 0.26
15,TTTAATAAATAAATAAATAAAATATATTAAAAACCA [CACACA_negctrl_site80],7.46 ± 0.52
16,ATATTTTATTATTGTTGTACTTTTTTTTTTTGATTG [XGTACX_site4091],7.97 ± 0.61
17,ATAATATGAAAACACACACACACACTAATAAAAAAA [CACACA_site8617],8.03 ± 0.62
18,GGCAACAATGTAGATTGTACATATGAATTTTACAAT [XGTACX_site5655],7.66 ± 0.45
19,ATATTTTGTTTTATAGTGCACATGGGCATATATTAA [GTGCAC_site9435],11 ± 0.32
20,ATATATATTATCATTGTGCACTTATTTATATACCTT,11.1 ± 0.15
21,TTTACTTTTTTTTCTTGTACTCATACATACTATCAT [XGTACX_site4919],7.84 ± 0.83
22,AAATTTCAATAATCTACACACATAAAAAAACAAAAG [CACACA_site1702],8.14 ± 0.35
23,AATTATTTATCGGAATGTACATAAAAACATATGTAT [XGTACX_site7443],7.99 ± 0.4

row,Sequence,gcPBM binding intensity (ln)
1,AATAATATCATTTAGACACACACTCTTACAATATGT [CACACA_site8832],7.79 ± 0.6
2,ACCTACATAACATACACACGCATATATATAATTTTA [CACACA_site2847],8.51 ± 0.26
3,TATTTAATAAAGAAATAAAAATAAAGAAAAAAAAAA [CACACA_negctrl_site74],7.82 ± 0.58
4,CTTTCTTATTTGAACGCATGCATTTGTACCTTTTAT [TGCATGCA_site671],8.08 ± 1
5,TATATACAAAATGCCTGTACATATATATTTATTTAT [XGTACX_site761],7.59 ± 0.53
6,CATGCAAAAAATTCCACACACACACCCACATATAAA [CACACA_site1229],8.135 ± 0.064
7,CCATAAAAAGGATACACACACACACCGACATATATA [CACACA_site4653],7.8 ± 0.45
8,GTATTATATTTCAACTGTACGTAAAACTATTAAAAT [XGTACX_site3679],8.01 ± 0.58
9,TTCATTTAGCAAGAATGTACTTATATATATATATAT [XGTACX_site3401],9.29 ± 0.15
10,CAAAAAAATGTGAAGGCATGCAAATATGTAAAATAA [TGCATGCA_site921],8.17 ± 0.69
11,ATAAAGCCATACAATACACACATTTTACATGGGGGT [CACACA_site9072],8.95 ± 0.33
12,AAAAATATAATATAATGTACACAAAAAAAAAAAAAT [XGTACX_site4914],8.18 ± 0.15
13,TATAAATTTGTTGTTGCATGCAGTATACCAAAAAAA [TGCATGCA_site445],8.34 ± 0.72
14,ATTTGTAATTTATATTCACACATTCAAAAAAATGAG [CACACA_site6057],7.59 ± 0.52
15,TAAAATGTAATCTGAACACACATATTTTTTTAATAT [CACACA_site1768],7.42 ± 0.43
16,AATAGCCCATATGGAATACACACTGAAAATAAAAAA [CACACA_site3373],7.85 ± 0.68
17,AATACGAAGGATAAGAGTACTAATTAAATAAATGAA [XGTACX_site523],7.78 ± 0.49
18,ATATAAGAATAAATAGTGCAAAATAAATGATTATTT,10.7 ± 0.33
19,GTATATAAGTATATATGTACATATATTTTATATATA [XGTACX_site4745],7.62 ± 0.28
20,TTTTATAATTTAAAATAATGAAACTTCTTTCTATTT [TGCATGCA_negctrl_site324],7.2 ± 0.67
21,TTTTTTTTTTTTTTGGTGCGATCTTTTAAATGATCC,8.51 ± 0.11
22,TTTAAATTTTAATATGCACACAAAATGTTATATTAA [CACACA_site8015],9.06 ± 0.13
23,TTTCTGATATTTTTATATTTTCTTATATATATATAT [GTGCAC_negctrl_site652],8.88 ± 0.55

row,Sequence,gcPBM binding intensity (ln)
1,TTTTCAATTAATAATACACACATGTATATATTATTA [CACACA_site3311],7.79 ± 0.47
2,TACAAATACATTACATGTACATATTTAATAATATCA [XGTACX_site2075],7.72 ± 0.22
3,AAGAAAAATATATATATAAATAAATAAATATATATA [TGCATGCA_negctrl_site330],7.56 ± 0.49
4,TTTGAAAAGTATGAGGTGCAAAAAATGTAATGAAAT,10.6 ± 0.24
5,TATATTATTATGCATAGTACGTACTGTGATAAGAAT [XGTACX_site2956],8.21 ± 0.4
6,CATTTTAAAACAGACACACACCAAAAAAAAAAAAAA [CACACA_site6259],8.04 ± 0.57
7,TTTTTCTGTCGTTGTTGTACTTGAGGAGTAACAATT [XGTACX_site7852],8.15 ± 0.53
8,AATAATAAATATATATATATATATATATATATATTT [CACACA_negctrl_site786],7.95 ± 0.42
9,ATATATATATATATAGTGCAAATATCTTCTTTATAA,10.4 ± 0.26
10,TAATAAACCAAACTAAACAATATATCAAAAAGCACA [CACACA_negctrl_site269],9.12 ± 0.32
11,TATTATATCGAACACTGTACTTTTTTATTCAACCTA [XGTACX_site493],7.96 ± 0.51
12,GCCTTTTTATTTAGAACACACACAAAAAAAAAAAAA [CACACA_site8520],8.27 ± 0.3
13,AAAAGTTGTTTATAATGTACAAGGTAGAAAAAAACA [XGTACX_site1454],8.23 ± 0.78
14,TAAATGGATTGTTCAGGTACACATAAATATGATATT [XGTACX_site6963],7.58 ± 0.57
15,ATATTATATAATAATGCATGCACCTTATTTTCATTT [TGCATGCA_site405],9.31 ± 0.29
16,ATTATATTATTTTAAAGTACACACATATATTAATAT [XGTACX_site4769],7.9 ± 0.38
17,AACAAAATAAAAATAACACACACATTTATATATATA [CACACA_site8313],8.57 ± 0.042
18,ATTTTTCCTCTCTTTTGTACTTATATATATATATAT [XGTACX_site7405],9.55 ± 0.47
19,ATAAATACTTTTTGGTGTACACTTTTAAATGAAAAA [XGTACX_site3042],8.2 ± 0.16
20,CAATTAAAGAAAAACAGTACGTGTATCAAACATCCT [XGTACX_site8990],7.76 ± 0.46
21,ATATGCTAATAAAATTGTACATATTATTCATATTGT [XGTACX_site2344],7.57 ± 0.53
22,TGACTACATAAAATGACACACACAAACTTTAAAATT [CACACA_site9151],7.84 ± 0.76
23,ATATATTTTTAGCACAGTACAATATAATTAAATATA [XGTACX_site6779],8.36 ± 0.36

row,Sequence,gcPBM binding intensity (ln)
1,TAGTATTATTATTATGCACACAAAAATATTTATACA [CACACA_site9219],10.1 ± 0.48
2,TTTTTTTTTTTTTTTTGTACATAATTATATATTTAC [XGTACX_site7540],8.12 ± 0.59
3,AGCATTTCTTTTACATGTACATAATATTTTTAATAA [XGTACX_site1968],8.35 ± 0.39
4,AAAAAAAAAAAAAAAAAAATAAAAAATAAATAAATA [CACACA_negctrl_site1498],8.885 ± 0.007
5,TATATATGTATGTATGCATGCCCTTTTTTAAAAAAA [TGCATGCA_site434],8.04 ± 0.71
6,AAGAAAAAACAAACATGTACACATAATTTAGTTTTT [XGTACX_site3121],7.79 ± 0.3
7,AATGTATTAAAATTACGTACATATGCACATTTTATA [XGTACX_site5046],8.45 ± 0.36
8,TACTCTTTCCAGAAGTGTACATAGAAATAATTACAT [XGTACX_site2668],7.73 ± 0.58
9,TTTTTTATTTTGTGCACACACATAAAAATATAAATA [CACACA_site6497],11.01 ± 0.042
10,TATAAATACATACATACACACATATATATATATATT [CACACA_site6116],7.75 ± 0.38
11,TCCTAAAAAAAAAAAAAAAATGAAAAAGGAAAAAAA [CACACA_negctrl_site1646],7.33 ± 0.67
12,TAAAAATAATATATTTGTACATATGTGTATACATAA [XGTACX_site741],7.62 ± 0.61
13,AAAAAAAAAAAAAAAAGTACTAAATGTAAAAGAATA [XGTACX_site2164],8.62 ± 0.52
14,CAAGCACAGAAACACACACACACACCGACACAGACA [CACACA_site4359],8.11 ± 0.24
15,CTACCTTTAATATATACACACACATAAAAAAAATAT [CACACA_site8548],8.05 ± 0.28
16,ATATATATATATAATAAACACACAAATAGATATAAC [CACACA_site9234],9.07 ± 0.38
17,TATATATATATATATACATGCATACATATACATACA [TGCATGCA_site897],9.38 ± 0.37
18,AGATAAGATATATACACACACATAAATACGTACAAA [CACACA_site6639],8.35 ± 0.16
19,ATTATATAGCTAAAAAAAATAAATTAAAAATATTAA [TGCATGCA_negctrl_site505],7.41 ± 0.46
20,ATATTTACAAGTAATAGTACAGTTAATTATATAAAA [XGTACX_site4856],7.7 ± 0.54

# From the supplement of paper PMC11417369
